Values joined by “and” are separate entries in the source; they are usually repeats but may differ in a detail not shown here. Identical values can stand only once. About 12,000 (3.5%) of roughly 340,000 compounds were called active. This list was built around the results that the source calls inconclusive (neither active nor inactive); the mix of calls is not that of the screen. Calls follow the shape of the dose curve; as a rule, active = well fitted inhibition curve with a large enough effect; inconclusive = small, poorly fitted or top-dose-only effect, or another doubt; inactive = no such curve, though single readings can be large or run the other way. Potencies of inconclusive entries are doubtful fits and often do not repeat.
Assay: qHTS Assay for Inhibitors of Hepatitis C Virus (HCV)
Conditions: Huh7.5.1 HCVcc-Cre (HCVcc is cell-culture hepatitis C virus) infection, luciferase reporter, 44 h; activity change, negative = inhibition: at 41.8 µM (top of the series) unless noted
Method in brief: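 1,000 cells/well; 4 h culture; + compound; + HCVcc-Cre (~0.5 moi); 44 h; luciferase substrate, RT 15 min; read 15 sec.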
% is scaled to controls: 0 for no effect and ±100 for the full control effect; potency is read from the fitted curve at half-maximal effect; tags tell the direction and shape of the fitted curve.

Structure (SMILES) | Potency | activity change, negative = inhibition
CCOc1ccc(C(=O)N(Cc2ccccc2)c2cccc(C)c2)cc1OC | inconclusive: 22.4 µM [inhibitor, single point] | –
O=C(NCc1ccccc1)C1=C[C@@H](C2CCCCC2)C[C@@H](OCCCCO)O1 | inconclusive: 5.01 µM [inhibitor, single point] | –
CCCCOC(=O)c1ccc(NC(=O)c2c(Cl)ccc(Cl)c2OC)cc1 | inconclusive: 11.2 µM [inhibitor, partial curve] | –
Cc1ccc(-n2cc(-c3ccccc3)c3c(N4CCN(C)CC4)ncnc32)cc1 | – | inactive: -26.5%
Cc1c(Cl)c([N+](=O)[O-])nn1CC(=O)N1CCN(C23CC4CC(CC(C4)C2)C3)CC1 | inconclusive: 3.16 µM [inhibitor, single point] | –
CCCCc1c(C)c2ccc(OC)c(/C(C)=N\O)c2oc1=O | inconclusive: 31.6 µM [inhibitor, single point] | –
O=C(CC(=O)c1cccs1)c1ccncc1 | – | inactive: 0.937%
CC1=C(C(=O)Nc2ccccc2)C(c2ccc(Cl)cc2)n2c(s/c(=C/c3cccc(OCC(=O)O)c3)c2=O)=N1 (stereo not drawn) | – | inactive: 1.67%
Cc1nn(-c2ccccc2)c2c1C(c1ccc([N+](=O)[O-])cc1)N1C(=N2)C(=O)Nc2ccccc21 (stereo not drawn) | inconclusive: 22.4 µM [inhibitor, single point] | –
CC1(C)Cc2c(sc(NC(=O)C(C)(C)C)c2C#N)C(C)(C)N1 | – | inactive: 8.89%
COC(=O)C1=C(C)N(C2CCCCC2)C(=O)C1 | – | inactive: -11.8%
COc1ccc(N2C(=O)NC(=O)/C(=C\c3ccccc3[N+](=O)[O-])C2=O)cc1 | – | inactive: 24.6%
Cc1ccccc1/C=C\c1nc2ccccc2c(=O)[nH]1 | active: 10 µM | –
S=C(NCCc1ccccc1)Nc1ccc(Cl)cc1 | inconclusive: 31.6 µM [inhibitor, single point] | –
Cc1c(OC(C)C(=O)NCc2ccncc2)ccc2c3c(c(=O)oc12)CCCC3 (stereo not drawn) | inconclusive: 11.2 µM [inhibitor, partial curve] | –
CN(C)CCNC(=O)/C(=C/c1ccc(-c2ccc(Cl)cc2Cl)o1)NC(=O)c1ccccc1 | active: 10 µM | –
CCOC(=O)CSc1cccc2cccnc12 | active: 6.31 µM | –
c1ccc(Oc2nc(-c3ccccn3)nc3ccccc23)cc1 | active: 7.94 µM | –
Cc1ccccc1NC(=S)NC1CCCC1 | – | inactive: -28.6%
Cc1ccc(S(=O)(=O)N2CCOCC2)cc1NC(=O)Cn1nc(C)c([N+](=O)[O-])c1C | inconclusive: 0.501 µM [inhibitor, full curve, poor fit] | –
CCN(CC(=O)NCc1ccc(F)cc1)C(=O)/C=C/c1ccc(OC)cc1 | inconclusive: 10 µM [inhibitor, partial curve] | –
CC1=C(C(=O)OC2CCCCC2)C(c2ccccc2)NC(=O)N1 (stereo not drawn) | active: 10 µM | –
Cc1nc2cc(NC(=O)C3COc4ccccc4O3)ccc2s1 (stereo not drawn) | – | inactive: 11%
Cc1cc(-c2cccs2)nc(-n2cccc2)n1 | active: 5.01 µM | –
COc1ccc(/C=N/N2CCN(c3ccccc3OC)CC2)cc1Br | inconclusive: 12.6 µM [inhibitor, single point] | –

Structure (SMILES) | Potency | activity change, negative = inhibition
O=C(CN1C(=O)CC(c2ccccc2)=Nc2ccccc21)NCc1ccco1 | inconclusive: 11.2 µM [inhibitor, single point] | –
O=C(NCCCn1ccnc1)c1ccc(NS(=O)(=O)c2cccc([N+](=O)[O-])c2)cc1 | – | inactive: 7.52%
Cc1ccc(C(=O)NC(=S)NNC(=O)c2cccc([N+](=O)[O-])c2)cc1 | inconclusive: 11.2 µM [inhibitor, single point] | –
CCc1ccc(S(=O)(=O)NC(=S)NC2CCCCC2)cc1 | – | inactive: 16.1%
C[C@H](O)[C@@H]1C(=O)N2CCc3ccc(N4CCN(C)CC4)cc3[C@@H]2C[C@@H]1N(C)C(=O)NC1CCCCC1 | inconclusive: 5.01 µM [inhibitor, partial curve] | –
O=C(Nc1nc(-c2ccccc2)cs1)c1ccc(S(=O)(=O)N2CCc3ccccc32)cc1 | active: 10 µM | –
COc1ccc(-c2ccc(OC)c([C@H]3[C@H]4C=CC[C@@H](C)[C@@H]4C(=O)N3Cc3ccccc3)c2)cc1 | inconclusive: 0.794 µM [inhibitor, full curve] | –
CCOC(=O)c1c(NC(=O)CSc2nnc(-c3c[nH]c4ccccc34)n2CCOC)sc2c1CCCC2 | active: 11.2 µM | –
CC(C)(C)OC(=O)N(Cc1ccccc1)Cc1cccc(OCc2cccc(NC(=O)C3CC3)c2)c1 | active: 1.26 µM | –
O=C(O)c1cccc2c1C(=O)c1cccc3snc-2c13 | – | inactive: 10.2%
CCOc1ccc(NS(=O)(=O)c2ccc(C(=O)NCc3ccncc3)cc2)cc1 | active: 7.08 µM | –
COc1ccc2nc(NC(=O)c3ccc([N+](=O)[O-])o3)sc2c1 | inconclusive: 2.82 µM [inhibitor, single point] | –
COc1ccc(N2CCN(CCCNC(=O)C(=O)c3c(C)n(C)c4ccccc34)CC2)cc1 | inconclusive: 3.16 µM [inhibitor, single point] | –
CCN(CC)C(=O)CC(c1cc(OC)c(OC)c(OC)c1)c1c(OC)cc(OC)c2c(-c3ccccc3)cc(=O)oc12 (stereo not drawn) | inconclusive: 12.6 µM [inhibitor, partial curve] | –
O=C(COc1ccc2c(c1)CCC2)NCc1ccccc1 | – | inactive: -5.16%
c1ccc(-c2nnc3sc(-c4ccncc4)nn23)cc1 | – | inactive: -4.13%
COc1ccc(CCNCC(O)COc2ccc(Cl)cc2)cc1OC (stereo not drawn) | inconclusive: 10 µM [inhibitor, single point] | –
CCn1c(C(=O)N2CCC(Cc3ccccc3)CC2)cc2sccc21 | inconclusive: 22.4 µM [inhibitor, single point] | –
CCOc1ccc(-c2[nH]ncc2Oc2ccccc2OCC)c(O)c1 | inconclusive: 31.6 µM [inhibitor, single point] | –
NS(=O)(=O)c1ccc(CCNC(=O)Cc2c[nH]c3ccccc23)cc1 | – | inactive: -0.259%
C[C@H]1O[C@@H](O[C@H]2[C@@H](O)C[C@H](O[C@H]3[C@@H](O)C[C@H](O[C@H]4CC[C@@]5(C)[C@H](CC[C@@H]6[C@@H]5C[C@@H](O)[C@]5(C)[C@@H](C7=CC(=O)OC7)CC[C@]65O)C4)O[C@@H]3C)O[C@@H]2C)C[C@H](O)[C@@H]1O | inconclusive: 3.98 µM [inhibitor, single point] and inconclusive: 316 nM [inhibitor, full curve, poor fit] | –
COC(=O)c1c(NC(=O)C2CCCCC2C(=O)O)sc2c1CCCCC2 (stereo not drawn) | – | inactive: 3.42%
O=C(Nc1ccc([N+](=O)[O-])cc1)c1ccc(S(=O)(=O)N2CCCC2)cc1 | – | inactive: -8.31%
COc1ccccc1N=C(C)C1=C(O)CSC1=O | – | inactive: -10.2%
Cc1cc(Nc2ccccc2)n2nc(C)c(-c3ccccc3)c2n1 | inconclusive: 12.6 µM [inhibitor, single point] | –

Structure (SMILES) | Potency | activity change, negative = inhibition
CCOc1ccc(NC(c2ccccc2)P(=O)(OC)OC)cc1 (stereo not drawn) | – | inactive: 6.99%
CCc1ccn2cc(-c3cc(-c4ccccc4)no3)nc2c1 | active: 10 µM | –
CC(=NNC(=O)c1ccc2nc[nH]c2c1)c1ccc(Br)cc1 | – | inactive: -2.36%
O=c1c(Cc2ccc(Cl)cc2Cl)c(O)ccn1Cc1ccc(Cl)cc1 | – | inactive: -4.66%
Oc1c(CN2CCCCC2)cc(COCc2ccccc2)c2cccnc12 | active: 10 µM | –
Cc1cc(C)c2nc(N3CCC(C(=O)NCC4CCCO4)CC3)sc2c1 (stereo not drawn) | inconclusive: 11.2 µM [inhibitor, partial curve] | –
Cc1cccc(N2C(=O)CCC2=O)n1 | – | inactive: 2.03%
CCOC(=O)C1(Cc2ccc(Cl)cc2)CCN(Cc2nccn2CC)CC1 | inconclusive: 22.4 µM [inhibitor, single point] | –
Cn1c(/C=C/c2ccc(Cl)cc2Cl)c([N+](=O)[O-])c(=O)n(C)c1=O | inconclusive: 31.6 µM [inhibitor, single point] | –
Cc1ccc(C(=O)Nc2cc([N+](=O)[O-])ccc2C)cc1 | – | inactive: -6.26%
COc1cccc(NC(=O)COc2ccc3c(c2)CCC3)c1 | inconclusive: 31.6 µM [inhibitor, single point] | –
CCOCCCn1c(=NC(=O)c2ccco2)c(C(=O)OCC)cc2c(=O)n3cccc(C)c3nc21 | active: 11.2 µM | –
Cc1cc(C(=O)COC(=O)c2ccc(O)cc2O)c(C)n1C(C)C | inconclusive: 35.5 µM [inhibitor, partial curve] | –
COc1ccc(NC(=O)c2ccccc2NC(=O)CN2CCCCCC2)cc1 | inconclusive: 14.1 µM [inhibitor, single point] | –
CCCCN(Cc1cc2cc(OC)ccc2[nH]c1=O)S(=O)(=O)c1ccc(C)cc1 | active: 12.6 µM | –
CSc1ccc(CN2CCN(C(=O)COc3cccc(C)c3)CC2)cc1 | inconclusive: 31.6 µM [inhibitor, single point] | –
Cc1ccc(-n2cc3c(=O)n(C)c(=O)n(C)c3c2)cc1C | – | inactive: -9.15%
CCN(CC)C(=O)c1cc(-c2ccccc2OC)on1 | – | inactive: 2.42%
COc1ccc2cc(C(C)c3nc4ccccc4c(=O)n3N)ccc2c1 (stereo not drawn) | – | inactive: -6.4%
NC(=O)CSc1nc2scc(-c3ccco3)c2c(=O)n1-c1ccccc1 | inconclusive: 7.08 µM [inhibitor, partial curve] | –
O=C(CCCN1C(=O)/C(=C/c2ccccc2Cl)SC1=S)Nc1cccnc1 | inconclusive: 28.2 µM [inhibitor, single point] | –
OC(CN1C2=NCCN2c2ccccc21)c1ccc(Br)cc1 (stereo not drawn) | inconclusive: 31.6 µM [inhibitor, single point] | –
CCOC(=O)c1ccc(NC(=S)Nc2cccc(N)n2)cc1 | inconclusive: 22.4 µM [inhibitor, single point] | –

Source: PubChem BioAssay AID651820 (National Center for Advancing Translational Sciences (NCATS), 2012)
